Patent US6649626B1, “N-substituted 1-(lactone) isoquinolones for treating nervous disorders” (Centre National de la Recherche Scientifique (CNRS), priority 1999, dated 2003)

The compounds below were run on picrotoxin-binding site of the GABA-A receptor (assay: Displacement of 35S-TBPS from brain membranes). Conditions: not given.
Parameters: species or system rats

Row | SMILES | Inhibition of the tritiated ligands % TBPS (100 μM)
1 | COc1cc2c(cc1OC)[C@H]([C@@H]1C=C(C)C(=O)O1)N(C)CC2 (racemic) [Compound 30b] | 0%
2 | CC1=C[C@@H]([C@H]2c3cc4c(cc3CCN2C)OCO4)OC1=O (racemic) [Compound 43] | 50%
3 | Cc1ccc(S(=O)(=O)N2C=Cc3ccccc3C2[C@H]2CCC(=O)O2)cc1 (mixture of isomers) [Compound 76, (±)-(1R,2′R)-2-N-Tosyl-1-(2,3,4,5-tetrahydro-5-oxo-2-furyl)-1,2-dihydroisoquinoline] | 20%
4 | O=C1C=C[C@H]([C@H]2c3ccccc3CCN2C(=S)Oc2ccccc2)O1 (racemic) [Compound 63] | perhaps stimulation
5 | O=C1C=CC(C2c3cc4c(cc3CCN2C(=O)OCc2ccccc2)OCO4)O1 (racemic) [Compound 44] | 25%
6 | COc1cc2c(cc1OC)[C@H]([C@@H]1CCC(=O)O1)N(C(=O)OCc1ccccc1)CC2 (racemic) [Compound 49] | 45%
7 | O=C1CCC(C2c3ccccc3CCN2S(=O)(=O)c2ccc(OC(F)(F)F)cc2)O1 (mixture of isomers) [Compound 71] | 0%
8 | O=C1C=CC(C2c3ccccc3CCN2C(=O)c2ccccc2)O1 (racemic) [Compound 60] | 25%
9 | COc1cc2c(cc1OC)C(C1CCC(=O)O1)N(C)CC2 (racemic) [Compound 28] | 9%
10 | COc1cc2c(cc1OC)C(C1C=CC(=O)O1)NCC2 (racemic) [Compound 42] | 0%
11 | COc1cc2c(cc1OC)[C@H]([C@@H]1CCC(=O)O1)NCC2 (racemic) [Compound 27b, (±)-Threo-6,7-dimethoxy-1-(2,3,4,5-tetrahydro-5-oxo-2-furyl)-1,2,3,4-tetrahydroisoquinoline] | negligible
12 | O=C1CCC(C2c3ccccc3CCN2S(=O)(=O)c2ccc(C(F)(F)F)cc2)O1 (mixture of isomers) [Compound 70] | 0%
13 | Cc1ccc(S(=O)(=O)N2CCc3ccccc3C2[C@H]2CCC(=O)O2)cc1 (mixture of isomers) [Compound 67, (±)-(1R,2′R)-1-(2,3,4,5-Tetrahydro-5-oxo-2-furyl)-2-N-p-toluenesulfonyl-1,2,3,4-tetrahydroisoquinoline] | 15%

Same assay, conditions: 100 μM; brain of rats

Row | SMILES | influence on the GABA inhibition of the TBPS bindings
14 | O=C1CCC(C2c3ccccc3CCN2C(=O)OCc2ccccc2)O1 (racemic) [Compound 54, (±)-(1R,2′R)-2-N-Benzyloxycarbonyl-1-(2,3,4,5-tetrahydro-5-oxo-2-furyl)-1,2,3,4-tetrahydroisoquinoline] | does not influence the GABA inhibition of the TBPS bindings
